# PubChem BioAssay AID485294 (National Center for Advancing Translational Sciences (NCATS), 2010)
# About 150 (0.041%) of roughly 370,000 compounds were called active. The shares of active, inactive and inconclusive entries below differ from those in the screen. Calls come from the whole dose curve; as a rule, active = well fitted inhibition curve with a large enough effect; inconclusive = small, poorly fitted or top-dose-only effect; inactive = flat fitted curve, though single readings scatter. Potencies of inconclusive entries are left out as doubtful fits.
# Molecular target: Beta-lactamase (Escherichia coli (strain K12)) (UniProt P00811)
# Test: qHTS Inhibitors of AmpC Beta-Lactamase (assay with detergent); note: nearly all actives have a fitted effect of over 25% in size;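 for activity change, negative = inhibition: 0% = no-compound wells and -100% = no-enzyme wells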
# Conditions: AmpC hydrolysis of nitrocefin, absorbance 480 nm, 0.01% Triton; activity change, negative = inhibition: at 114 µM (top of the series)
# Summary of the method: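 20 mM phosphate pH 7.0 + 0.01% (detergent screen) or 0.0001% Triton X-100; 5.3 nM AmpC reagent; cpd preinc 15 min RT; nitrocefin (800 uM stock) to start; A480 q20 s × 4 min; Activity was normalised to no-enzyme and no-compound control wells.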
# Potency is the fitted concentration of half-maximal effect; tags give direction and shape of the fitted curve.
# Sequence of UniProt P00811 (P00811 whole entry, looked up): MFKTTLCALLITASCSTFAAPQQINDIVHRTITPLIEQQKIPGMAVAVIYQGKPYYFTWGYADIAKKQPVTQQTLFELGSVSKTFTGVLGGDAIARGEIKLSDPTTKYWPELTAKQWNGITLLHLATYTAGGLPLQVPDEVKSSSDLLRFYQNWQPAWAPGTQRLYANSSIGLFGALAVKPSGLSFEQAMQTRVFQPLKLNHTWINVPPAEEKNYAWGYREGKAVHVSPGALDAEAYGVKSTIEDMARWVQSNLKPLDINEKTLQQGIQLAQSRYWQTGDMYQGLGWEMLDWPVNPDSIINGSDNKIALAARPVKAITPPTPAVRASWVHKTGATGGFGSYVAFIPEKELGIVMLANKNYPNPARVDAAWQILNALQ
SMILES,"activity change, negative = inhibition",Potency
COC(=O)c1sc(S(=O)(=O)NC(C)C(=O)O)c(C(=O)OC)c1C (stereo not given),inactive: 3.94%,
Cc1ccc(NC(=O)c2cc([N+](=O)[O-])ccc2N2CCOCC2)cc1S(=O)(=O)N(C)C,inactive: 6.96%,
CCOC(=O)c1c(/N=C/c2ccccc2O)sc2c1CCC2,inactive: -3.74%,
O=C(NC(=S)Nc1nc2c(s1)CCCC2)c1ccccc1,,"inconclusive [inhibitor, full curve, poor fit]"
O=C(c1ccccc1)c1ccccc1N1C(=O)C=CC1=O,,"inconclusive [inhibitor, single point]"
Cc1cc(C)cc(-n2ccnc2SCC(=O)Nc2nc3ccc(C)cc3s2)c1,inactive: -4.72%,
CC(=O)c1ccc(OCC(O)CN2CCN(Cc3ccc4c(c3)OCO4)CC2)cc1 (stereo not given),,"inconclusive [inhibitor, full curve, poor fit]"
CS(=O)(=O)N1CCN(C2CCN(Cc3ccccc3)CC2)CC1,,"inconclusive [inhibitor, single point]"
Cc1ccc(-c2nn(-c3cc(Cl)ccc3[N+](=O)[O-])c(=O)c3ccccc23)cc1C,,"inconclusive [inhibitor, full curve, poor fit]"
CC(C)C(NC(=O)c1c(F)cccc1F)C(=O)NCCc1ccc(S(N)(=O)=O)cc1 (stereo not given),,"inconclusive [inhibitor, full curve, poor fit]"
CCN(CC)c1ccc(/C=C/c2cccc[n+]2C)c(OC)c1,,"inconclusive [inhibitor, full curve, poor fit]"
CN(CCO)c1cc(NCCCN2CCC(Cc3ccccc3)CC2)c2nonc2c1[N+](=O)[O-],,"inconclusive [inhibitor, full curve, poor fit]"
O=C1CC(c2ccco2)c2ccc3ccccc3c2N1 (stereo not given),,"inconclusive [inhibitor, full curve]"
Cc1ccn(-c2ccc([N+](=O)[O-])cc2)n1,,"inconclusive [inhibitor, full curve, poor fit]"
COc1ccc(-c2ccc(=O)[nH]n2)cc1,inactive: -0.745%,
COc1ccc(CN2CCN(S(=O)(=O)c3ccc(C)cc3)CC2)cc1Br,inactive: -3.07%,
CCOC(=O)c1c(C)sc2c1N(C(=O)CN(CC)CC)c1ccccc1S2,,"inconclusive [inhibitor, single point]"
O=C(COC(=O)c1ccc(Cl)c(S(=O)(=O)N2CCCCC2)c1)NCCc1ccccc1,,"inconclusive [inhibitor, full curve, poor fit]"
COC(=O)c1c(C)[nH]c(C(=O)/C=C/c2cccc(Cl)c2)c1C,inactive: -1.69%,
CC1=C(C(=O)OCCOC(C)C)C(c2cc3c(cc2Br)OCO3)C2=C(CCCC2=O)N1 (stereo not given),,"inconclusive [inhibitor, single point]"

SMILES,"activity change, negative = inhibition",Potency
Oc1ccc(Cl)cc1N=Cc1sc2ccccc2c1Cl,,"inconclusive [inhibitor, partial curve]"
O=C(COC(=O)c1c[nH]c(=O)[nH]c1=O)NCc1ccccc1,,"inconclusive [inhibitor, single point]"
C/C(=N/NC(=O)CCC(=O)Nc1cccc(Cl)c1)c1ccc(C)cc1,,"inconclusive [inhibitor, full curve]"
Cc1ccnc(NC(=O)c2cccc(NC(=O)COc3ccccc3)c2)c1,,"inconclusive [inhibitor, full curve, poor fit]"
CCn1c(=N)n(CC(=O)c2ccco2)c2ccccc21,,"inconclusive [inhibitor, single point]"
COc1ccc(Cl)cc1NC(=O)Cn1cnc2sc(C)c(S(=O)(=O)N3CCN(c4ccccc4OC)CC3)c2c1=O,,"inconclusive [inhibitor, single point]"
CCN(CC)S(=O)(=O)c1ccc(O)c(C(=O)OCC(=O)N2CCCC2)c1,,"inconclusive [inhibitor, full curve, poor fit]"
C/C(=N\NC(N)=S)C1C2C3CC4C5CC(C42)C1C53 (stereo not given),inactive: 7.35%,
CCCc1nn(C)c2c1C(c1ccncc1)C(C#N)=C(N)O2 (stereo not given),,"inconclusive [inhibitor, full curve, poor fit]"
COc1cccc(NC(=O)CN(C)C(=O)c2ccc(-c3cccc(C(F)(F)F)c3)o2)c1,,"inconclusive [inhibitor, full curve, poor fit]"
COC(=O)CC1C(=O)NCCN1C(=O)c1ccccc1 (stereo not given),,"inconclusive [inhibitor, full curve, poor fit]"
COc1ccc(/C(O)=C2/C(=O)C(=O)N(CC3CCCO3)C2c2ccc(OC)c(OC)c2)cc1 (stereo not given),,"inconclusive [inhibitor, full curve, poor fit]"
NS(=O)(=O)c1ccc(NC(=O)CSc2nc3c(cnn3-c3ccccn3)c(=O)[nH]2)cc1,,"inconclusive [inhibitor, partial curve, poor fit]"
CCCCOC(=O)c1cc(C)nc2ccc(Br)cc12,,"inconclusive [inhibitor, full curve, poor fit]"
O=C(CCS(=O)(=O)Cc1ccccc1)Nc1ncc([N+](=O)[O-])s1,inactive: 2.63%,
COc1ccccc1NC(=O)Cn1c([N+](=O)[O-])cnc1C,,"inconclusive [inhibitor, partial curve, poor fit]"
COc1ccc(-n2nc(C(=O)NCC(=O)N3CCC4(CC3)OCCO4)c3ccccc3c2=O)c(OC)c1,,"inconclusive [inhibitor, single point]"
CCCCn1c(N)c(N(CC(C)C)C(=O)CSc2ccc3c(c2)OCCO3)c(=O)[nH]c1=O,,"inconclusive [inhibitor, full curve, poor fit]"
CCOC(=O)c1c(NC2=NS(=O)(=O)c3ccccc32)sc2c1CCC(C)C2 (stereo not given),,"inconclusive [inhibitor, partial curve, poor fit]"
CCCn1c(NC(=O)C23CC4CC(CC(O)(C4)C2)C3)nc2ccccc21,,"inconclusive [inhibitor, partial curve]"
